# Assay results: EP3858439A1 (priority 2020, dated 2021)
# Target: human α2δ-1 subunit of Cav2.2 calcium channel (Homo sapiens, UniProt P54289)
# Assay: Binding assay to human α2δ-1 subunit of Cav2.2 calcium channel ([3H]-Gabapentin displacement)
# Description: Binding assay to human α2δ-1 subunit of Cav2.2 calcium channel.
# Human α2δ-1 enriched membranes (2.5 µg) were incubated with 15 nM of radiolabeled [3H]-Gabapentin in assay buffer containing Hepes-KOH 10 mM, pH 7.4.
# NSB (non specific binding) was measured by adding 10 µM pregabalin. The binding of the test compound was measured at either one concentration (% inhibition at 1 or 10 µM) or five different concentrations to determine affinity values (Ki). After 60 min incubation at 27 °C, binding reaction was terminated by filtering through Multiscreen GF/C (Millipore) presoaked in 0.5 % polyethyleneimine in Vacuum Manifold Station, followed by 3 washes with ice-cold filtration buffer containing 50 mM Tris-HCI, pH 7.4.
# Filter plates were dried at 60 °C for 1 h and 30µl of scintillation cocktail were added to each well before radioactivity reading.
# Readings were performed in a Trilux 1450 Microbeta radioactive counter (Perkin Elmer).
# [1] = read-out: Binding α2δ-1, Table 2, human α2δ-1 enriched membranes, 15 nM [3H]-Gabapentin, 60 min at 27 °C
# human α2δ-1 subunit of Cav2.2 calcium channel, sequence (P54289 25-1103): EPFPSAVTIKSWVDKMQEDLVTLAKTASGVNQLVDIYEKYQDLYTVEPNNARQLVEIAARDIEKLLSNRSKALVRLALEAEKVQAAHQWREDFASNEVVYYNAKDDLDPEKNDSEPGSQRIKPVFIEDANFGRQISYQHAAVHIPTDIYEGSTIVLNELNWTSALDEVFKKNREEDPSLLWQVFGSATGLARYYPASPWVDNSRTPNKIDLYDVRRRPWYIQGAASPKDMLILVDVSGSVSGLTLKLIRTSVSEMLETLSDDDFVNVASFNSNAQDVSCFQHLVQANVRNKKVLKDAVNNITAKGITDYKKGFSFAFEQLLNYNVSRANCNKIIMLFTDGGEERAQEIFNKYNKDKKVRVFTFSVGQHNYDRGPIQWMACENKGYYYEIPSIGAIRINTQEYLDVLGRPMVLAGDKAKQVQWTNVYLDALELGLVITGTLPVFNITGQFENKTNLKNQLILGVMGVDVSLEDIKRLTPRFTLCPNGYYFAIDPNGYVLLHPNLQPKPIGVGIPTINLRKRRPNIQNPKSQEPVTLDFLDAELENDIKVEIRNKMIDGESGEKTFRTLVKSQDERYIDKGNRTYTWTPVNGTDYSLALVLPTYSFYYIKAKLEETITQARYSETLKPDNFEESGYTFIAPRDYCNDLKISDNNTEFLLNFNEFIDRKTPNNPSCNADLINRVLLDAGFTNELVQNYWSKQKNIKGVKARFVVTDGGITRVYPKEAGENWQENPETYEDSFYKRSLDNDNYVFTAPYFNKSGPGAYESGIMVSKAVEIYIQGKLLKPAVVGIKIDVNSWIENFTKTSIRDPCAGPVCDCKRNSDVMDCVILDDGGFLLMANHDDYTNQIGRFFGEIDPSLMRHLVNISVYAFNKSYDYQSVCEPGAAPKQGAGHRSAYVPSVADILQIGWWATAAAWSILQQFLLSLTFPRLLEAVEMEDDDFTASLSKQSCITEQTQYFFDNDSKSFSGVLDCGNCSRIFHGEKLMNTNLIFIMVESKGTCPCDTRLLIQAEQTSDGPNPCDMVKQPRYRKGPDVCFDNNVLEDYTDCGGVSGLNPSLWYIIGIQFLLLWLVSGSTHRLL
Structure (SMILES),Ki [µM],Ki [1] [µM]
"CNC[C@@H](C(=O)N1CCC(c2ccc(OC)cc2)(N(C)C)CC1)[C@@H](C)c1ccccc1 [Example 12, (2S,3R)-1-(4-(dimethylamino)-4-(4-methoxyphenyl)piperidin-1-yl)-2-((methylamino)methyl)-3-phenylbutan-1-one]",< 0.5,< 0.5
"CC[C@@H](c1ccccc1)[C@@H](CNC)C(=O)N1CCC(c2ccccc2)(N(C)C)CC1 [Example 13, (2S,3R)-1-(4-(dimethylamino)-4-phenylpiperidin-1-yl)-2-((methylamino)methyl)-3-phenylpentan-1-one dihydrochloride]",< 0.5,< 0.5
"CNC[C@@H](C(=O)N1CCC(c2ccccc2)(N(C)C)CC1)[C@@H](C)c1ccccc1F [Example 14, (2S,3R)-1-(4-(dimethylamino)-4-phenylpiperidin-1-yl)-3-(2-fluorophenyl)-2-((methylamino)methyl)butan-1-one dihydrochloride]",< 0.5,< 0.5
"CNC[C@@H](C(=O)N1CCC(c2ccccc2)(N(C)C)CC1)[C@@H](C)c1cccc(F)c1 [Example 15, (2S,3R)-1-(4-(dimethylamino)-4-phenylpiperidin-1-yl)-3-(3-fluorophenyl)-2-((methylamino)methyl)butan-1-one]",< 0.5,< 0.5
"CNC[C@@H](C(=O)N1CCC(c2cccc(O)c2)(N(C)C)CC1)[C@@H](C)c1ccccc1 [Example 16, (2S,3R)-1-(4-(dimethylamino)-4-(3-hydroxyphenyl)piperidin-1-yl)-2-((methylamino)methyl)-3-phenylbutan-1-one dihydrochloride]",< 0.5,< 0.5
"CC[C@@H](c1ccccc1)[C@@H](CNC)C(=O)N1CCC(NC)(c2ccccc2)CC1 [Example 17, (2S,3R)-1-(4-(methylamino)-4-phenylpiperidin-1-yl)-2-((methylamino)methyl)-3-phenylpentan-1-one dihydrochloride]",< 0.5,< 0.5
"CNC[C@@H](C(=O)N1CCC(CN(C)C)(c2ccccc2)CC1)[C@@H](C)c1ccccc1 [Example 18, (2S,3R)-1-(4-((dimethylamino)methyl)-4-phenylpiperidin-1-yl)-2-((methylamino)methyl)-3-phenylbutan-1-one]",< 0.5,–
"CC[C@@H](c1ccccc1)[C@@H](CNC)C(=O)N1CC(c2ccccc2)(N(C)C)C1 [Example 19, (2S,3R)-1-(3-(dimethylamino)-3-phenylazetidin-1-yl)-2-((methylamino)methyl)-3-phenylpentan-1-one dihydrochloride]",0.5 to 5,0.5 to 5
"CC[C@@H](c1cccc(F)c1)[C@@H](CNC)C(=O)N1CCC(NC)(c2ccccc2)CC1 [Example 20, (2S,3R)-3-(3-fluorophenyl)-1-(4-(methylamino)-4-phenylpiperidin-1-yl)-2-((methylamino)methyl)pentan-1-one]",< 0.5,< 0.5
"CC[C@@H](c1cccc(F)c1)[C@@H](CNC)C(=O)N1CCC(c2ccccc2)(N(C)C)CC1 [Example 21, (2S,3R)-1-(4-(dimethylamino)-4-phenylpiperidin-1-yl)-3-(3-fluorophenyl)-2-((methylamino)methyl)pentan-1-one]",< 0.5,< 0.5
"CC[C@@H](c1ccccc1)[C@@H](CNC)C(=O)N1CCC(NC)(c2ccc(OC)cc2)CC1 [Example 22, (2S,3R)-1-(4-(4-methoxyphenyl)-4-(methylamino)piperidin-1-yl)-2-((methylamino)methyl)-3-phenylpentan-1-one dihydrochloride]",< 0.5,< 0.5
"CC[C@@H](c1ccccc1)[C@@H](CNC)C(=O)N1CC(NC)(c2ccccc2)C1 [Example 23, (2S,3R)-1-(3-(methylamino)-3-phenylazetidin-1-yl)-2-((methylamino)methyl)-3-phenylpentan-1-one dihydrochloride]",< 0.5,–
"CN(C)C1(c2ccccc2)CCN(C(=O)C(CN)Cc2ccccc2)CC1 (stereo not shown) [Example 28, 3-amino-2-benzyl-1-(4-(dimethylamino)-4-phenylpiperidin-1-yl)propan-1-one dihydrochloride]",0.5 to 5,0.5 to 5
"CCNCC(Cc1ccccc1)C(=O)N1CCC(c2ccccc2)(N(C)C)CC1 (stereo not shown) [Example 30, 2-benzyl-1-(4-(dimethylamino)-4-phenylpiperidin-1-yl)-3-(ethylamino)propan-1-one dihydrochloride]",0.5 to 5,0.5 to 5
"CNCCC(Cc1ccccc1)C(=O)N1CCC(c2ccccc2)(N(C)C)CC1 (stereo not shown) [Example 31, 2-benzyl-1-(4-(dimethylamino)-4-phenylpiperidin-1-yl)-4-(methylamino)butan-1-one dihydrochloride]",0.5 to 5,0.5 to 5
"CNCC(Cc1ccccc1)C(=O)N1CCC(c2cccc(O)c2)(N(C)C)CC1 (stereo not shown) [Example 34, 2-benzyl-1-(4-(dimethylamino)-4-(3-hydroxyphenyl)piperidin-1-yl)-3-(methylamino)propan-1-one dihydrochloride]",0.5 to 5,0.5 to 5
"CN(C)C1(c2cccc(O)c2)CCN(C(=O)C2NCCc3ccccc32)CC1 (stereo not shown) [Example 35, (4-(dimethylamino)-4-(3-hydroxyphenyl)piperidin-1-yl)(1,2,3,4-tetrahydroisoquinolin-1-yl)methanone dihydrochloride]",> 5,> 5
"CNCC(Cc1ccccc1)C(=O)N1CCC(c2cccc(OC)c2)(N(C)C)CC1 (stereo not shown) [Example 41, 2-benzyl-1-(4-(dimethylamino)-4-(3-methoxyphenyl)piperidin-1-yl)-3-(methylamino)propan-1-one dihydrochloride]",0.5 to 5,0.5 to 5
"CNCC(Cc1ccccc1)C(=O)N1CCC(NC)(c2cccc(O)c2)CC1 (stereo not shown) [Example 44, 2-benzyl-1-(4-(3-hydroxyphenyl)-4-(methylamino)piperidin-1-yl)-3-(methylamino)propan-1-one dihydrochloride]",0.5 to 5,0.5 to 5
"C[C@H](N)[C@H](Cc1ccccc1)C(=O)N1CCC(c2ccccc2)(N(C)C)CC1 [Example 48, (2S,3S)-3-amino-2-benzyl-1-(4-(dimethylamino)-4-phenylpiperidin-1-yl)butan-1-one dihydrochloride]",> 5,> 5
"C[C@@H](N)[C@@H](Cc1ccccc1)C(=O)N1CCC(c2ccccc2)(N(C)C)CC1 [Example 49, (2R,3R)-3-amino-2-benzyl-1-(4-(dimethylamino)-4-phenylpiperidin-1-yl)butan-1-one dihydrochloride]",> 5,> 5
"CNCC(Cc1cccc(F)c1)C(=O)N1CCC(c2ccccc2)(N(C)C)CC1 (stereo not shown) [Example 52, 1-(4-(dimethylamino)-4-phenylpiperidin-1-yl)-2-(3-fluorobenzyl)-3-(methylamino) propan-1-one]",0.5 to 5,0.5 to 5
"CNCC(Cc1ccccc1C#N)C(=O)N1CCC(c2ccccc2)(N(C)C)CC1 (stereo not shown) [Example 55, 2-(3-(4-(dimethylamino)-4-phenylpiperidin-1-yl)-2-((methylamino)methyl)-3-oxopropyl)benzonitrile dihydrochloride]",0.5 to 5,0.5 to 5
"CNCC(Cc1ccccc1F)C(=O)N1CCC(c2ccccc2)(N(C)C)CC1 (stereo not shown) [Example 57, 1-(4-(dimethylamino)-4-phenylpiperidin-1-yl)-2-(2-fluorobenzyl)-3-(methylamino)propan-1-one dihydrochloride]",0.5 to 5,0.5 to 5

# Structures can show the parent of a compound that is named as a salt. Where two headings read alike, the source gives them in different places.
